In all, about 150,000 compounds went through this assay and about 540 (0.36%) showed an effect of 50% or more. The list shows a part of the results.

For the experiment, the system named is Plasmodium falciparum. The experiment is described as follows: Primary screen in NF54 nanoGlo assay, in single point, at 2uM, 72h; a lower Z score goes with more inhibition. The settings on record: timepoint 72 hour. In kind it is functional, Erythrocyte.
Take `CCN(C(=O)c1cnc(C)c(Br)c1O)C1CC1`: the “% Inhibition” value is given as -9% and the Z score is recorded as 0.87.
Take `Cn1ncc2c(NC(c3cccs3)c3cccs3)ncnc21`: the “% Inhibition” value is reported as -7% and the Z score came out at 1.05.
With `CC(C)(C)NCCCCOc1ccccc1F`, the “% Inhibition” value was -8% and the Z score is given as 1.44.
With `CC1CC(CNC(=O)N2CCN(c3nccnc3C#N)CC2C)C(C)O1` (stereo unspecified), the “% Inhibition” value is -10% and the Z score amounted to 1.79.
With `Cc1cc(NC(=O)[C@@H]2COc3ccccc3O2)ccc1N1CCCC1=O`, the “% Inhibition” value is -17% and the Z score is listed as 2.27.
In the same order, the values of `CC1(C)CN(C(=O)NC2CCCC2)CC[C@]1(C)O` are 7% and -1.13.
As to `CN1C(=O)NC(C)(C2CCCN(CCc3cccs3)C2)C1=O` (stereo unspecified), the “% Inhibition” value is -14% and the Z score was 1.64.
With `Clc1cnn(CCN2CCC[C@H]2COc2ccccc2)c1`, the “% Inhibition” value was -1% and the Z score came to 0.12.
For `Cc1nnc(CN2CC(C)(C)[C@@](C)(O)C2)s1`, the “% Inhibition” value is given as -16% and the Z score amounted to 2.68.
On to `CCCN1CCN(C(=O)Cn2cccc2-c2nc(-c3ccc(C)cc3)cs2)CC1`, for which the “% Inhibition” value is listed as -10% and the Z score was determined as 1.48.
In the same order, the values of `CCOC(=O)c1nccc(N2CCC[C@H](NCC(F)(F)F)C2)n1` are 5% and -0.61.
For `COc1cc2c(cc1CNCCc1cnn(-c3ccccc3)c1)OCCCO2`, in that order: 2% and -0.4.
As for `C[C@@H](CN1CCOCC1)NC(=O)c1ccccc1-c1nc[nH]n1`, the “% Inhibition” value was -7% and the Z score is reported as 0.96.
`Cc1cc(N2CCCCS2(=O)=O)cc(C)c1S(=O)(=O)N1CCCC1`: the “% Inhibition” value is -12% and the Z score came to 1.74.
On to `O=C1N[C@@]2(CCS(=O)(=O)c3ccc(F)cc32)C(=O)N1Cc1ccc(F)cc1`, for which the “% Inhibition” value is -8% and the Z score stood at 0.64.
Regarding `Cc1c(CN2C[C@H](C)OCC2(C)C)cc(C#N)n1C`, the “% Inhibition” value is listed as -6% and the Z score is recorded as 0.66.
For `O=C(Cn1ccnc1-c1cccc(C(F)(F)F)c1)NCC1CC1`, the “% Inhibition” value is listed as -6% and the Z score came to 0.83.
With `C[C@H]1CN(c2cc(CNC(=O)N(C)CC3CCC3)ccn2)CCO1`, the “% Inhibition” value amounted to 7% and the Z score is listed as -0.67.
Consider `Cc1cccc(NC(=O)Nc2cccc3c2N(Cc2cc(=O)n(C)c(=O)n2C)CCC3)c1`, for which the “% Inhibition” value is 4% and the Z score is -0.59.
On to `CCCNC(=O)C(C)N1CC(C)CC(C)C1` (stereo unspecified), for which the “% Inhibition” value is on record as -11% and the Z score is recorded as 1.57.
For `COC(=O)c1c(F)cc(C#N)cc1N[C@H](CO)Cc1ccccc1`, in that order: -4% and 0.58.
As for `O=C(NC1CC1)C1(F)CCN(S(=O)(=O)c2cccnc2)CC1`, the “% Inhibition” value was -13% and the Z score worked out at 1.62.
On to `C[C@@H](CO)NC(=O)Nc1cccc(Cl)c1`, for which the “% Inhibition” value turned out to be 29% and the Z score is -3.86.
Take `Cc1cccc(OC(=O)c2cnn(C)c2)c1F`: the “% Inhibition” value is -11% and the Z score came to 1.09.
In the same order, the values of `O=C(c1cnc2nccnc2c1)N1CC[C@H]1C1CCCC1` are -5% and 0.85.
Regarding `Cc1ccc(Cl)c2ccc(NC(=O)CCNC(N)=O)nc12`, the “% Inhibition” value stood at 38% and the Z score is recorded as -5.43.
Turning to `CCN1CCN(c2c(CN(CCOC)C(=O)CCc3ccccc3)c(C)nn2-c2cccc(F)c2)CC1`, the “% Inhibition” value is -9% and the Z score is 1.23.
For the compound `O=C(NCCOc1ccccc1F)c1onc2c1CCCC2`, the “% Inhibition” value was found to be 3% and the Z score was -0.5.
For `CC[C@H]1CN(c2nnc(C(=O)NCc3ccc(Cl)cc3)n2CC)CCO1`, in that order: -4% and 0.78.
Consider `Cc1cn(C)nc1CNCc1cn2ccsc2n1`, for which the “% Inhibition” value was -4% and the Z score came out at 0.74.
On to `Cc1cc(CNC(=O)N2CCNC(=O)[C@@H]2C)ccc1Cl`, for which the “% Inhibition” value is -14% and the Z score was 1.59.
`CC[C@H]1c2cccn2CCN1C(=O)c1cn2cc(Cl)cnc2n1`: the “% Inhibition” value is reported as -21% and the Z score was 2.91.
For the compound `Fc1ccccc1CCN1CCC[C@H](c2nnc3ccccn23)C1`, the “% Inhibition” value is -11% and the Z score came to 1.35.
On to `NC[C@H]1Cc2cc(F)cc(-c3cnc4ccccc4c3)c2O1`, for which the “% Inhibition” value worked out at 3% and the Z score is reported as -0.65.
For `Nc1c2c(-c3ccccc3F)nc(N3CCN(Cc4ccc(Cl)cc4)CC3)nc2nn1-c1ccc(Cl)c(Cl)c1`, in that order: -13% and 1.53.
On to `COc1cc(C#N)ccc1O[C@@H](C)c1nnc(-c2cccs2)o1`, for which the “% Inhibition” value is recorded as -6% and the Z score was found to be 0.91.
In the case of `O=C(Nc1nc2c(s1)CN(Cc1ccccc1)CC2)C1=NN(c2ccccc2)C(=O)CC1`, the “% Inhibition” value is recorded as 34% and the Z score is -3.45.
For `Cc1cccnc1C(=O)NCCn1cncn1`, in that order: -5% and 0.54.
In the case of `CCC=C(C)C(=O)NCCc1ccccc1OC`, the “% Inhibition” value is given as -8% and the Z score amounted to 0.87.
Regarding `CC[C@H](NC(=O)c1cccc(-n2cnnc2)n1)c1ncnn1CC`, the “% Inhibition” value is given as -3% and the Z score turned out to be 0.44.
As to `CN1CCN(C(=O)c2cccc(-c3ccc4cc[nH]c4c3)c2)C[C@@H]1CCO`, the “% Inhibition” value was found to be 0% and the Z score is 0.05.
For `CN(Cc1cnccn1)C(=O)c1ccccc1-c1ccccc1`, in that order: 2% and -0.35.
For `O=C(O)C1CCN([C@H]2CCN(c3ccccc3)C2)CC1`, the “% Inhibition” value was 0% and the Z score worked out at 0.05.

One may read the % Inhibition as the change of the read-out against control, counted positive when it falls.

For the origin of these results see ChEMBL document CHEMBL4888484, “Replenishing the malaria drug discovery pipeline: Screening and hit evaluation of the MMV Hit Generation Library 1 (HGL1) against asexual blood stage Plasmodium falciparum ,using a nano luciferase reporter read-out” (2022).
